Results: US20110077237A1, “KINASE INHIBITORS” (VERTEX PHARMACEUTICALS INCORPORATED, priority 2007, published 2011)
Counter-ions that a name gives are not always drawn. Some results were stated once for a whole list of compounds, not compound by compound.

target: PKC theta (Homo sapiens, UniProt Q04759); experiment: PKC Theta I coupled-enzyme (NADH absorbance) kinase assay; type: biochemical; details: 18 nM PKC theta, 240 μM ATP, 30° C., absorbance at 340 nm
Procedure: An assay buffer solution was prepared which consisted of 100 mM HEPES (pH 7.5), 10 mM MgCl2, 25 mM NaCl, 0.1 mM EDTA and 0.01% Brij. […] To 60 μL of this enzyme buffer, in a 384 well plate, was added 2 μL of VRT stock solution in DMSO. The mixture was allowed to equilibrate for 10 mins at 30° C. […] Ki values were calculated from initial rate data by non-linear regression using the Prism software package (Prism 4.0a, Graphpad Software, San Diego, Calif.).

Chain of UniProt Q04759 (Q04759 whole entry): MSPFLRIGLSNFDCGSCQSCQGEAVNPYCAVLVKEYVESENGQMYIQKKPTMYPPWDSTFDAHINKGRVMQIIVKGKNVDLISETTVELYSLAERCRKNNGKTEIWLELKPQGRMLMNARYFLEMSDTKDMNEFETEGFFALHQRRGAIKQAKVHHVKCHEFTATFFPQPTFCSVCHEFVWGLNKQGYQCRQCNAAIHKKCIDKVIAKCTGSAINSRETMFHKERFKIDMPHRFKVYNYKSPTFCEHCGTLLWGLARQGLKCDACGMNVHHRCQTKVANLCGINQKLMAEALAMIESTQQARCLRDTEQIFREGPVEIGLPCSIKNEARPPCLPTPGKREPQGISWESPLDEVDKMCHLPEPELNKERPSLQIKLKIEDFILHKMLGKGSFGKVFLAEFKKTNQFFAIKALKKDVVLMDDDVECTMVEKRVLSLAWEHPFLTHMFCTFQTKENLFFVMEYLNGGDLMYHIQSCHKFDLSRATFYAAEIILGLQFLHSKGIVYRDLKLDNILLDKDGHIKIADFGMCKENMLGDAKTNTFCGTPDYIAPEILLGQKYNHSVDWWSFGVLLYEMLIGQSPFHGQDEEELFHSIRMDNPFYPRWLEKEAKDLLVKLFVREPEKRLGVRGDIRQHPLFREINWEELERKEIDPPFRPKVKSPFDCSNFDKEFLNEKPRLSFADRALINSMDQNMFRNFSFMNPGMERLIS

First: COc1ccc(-c2cnc(N)c(C(=O)c3cccc(N4CCCNCC4)n3)c2)cc1 [compound 186]
Second: Nc1ncc(-c2cc[nH]c2)cc1C(=O)c1cccc(N2CCCNCC2)n1 [compound 199]
The Ki of the first is higher: 50 to 500 nM for the first, < 50 nM for the second. The second binds more tightly here.

First: Nc1ncc(CCc2ccccc2)cc1C(=O)c1cccc(N2CCCNCC2)n1 [compound 187]
Second: Nc1ncc(Cc2ccccc2)cc1C(=O)c1cccc(N2CCCNCC2)n1 [compound 188]
The Ki of the first is higher: 50 to 500 nM for the first, < 50 nM for the second.

First: Nc1ncc(Br)cc1C(=O)c1cccc(N2CCNCC2)n1 [compound 195]
Second: N#Cc1cnc(N)c(C(=O)c2cccc(N3CCCNCC3)n2)c1 [compound 302]
The Ki of the first is lower: < 50 nM for the first, 50 to 500 nM for the second. The first binds more tightly here.

First: Nc1ncc(Br)cc1C(=O)c1cccc(NCCN2CCOCC2)n1 [compound 197]
Second: CC(C)C[C@H]1CN(c2cccc(C(=O)c3cc(Br)cnc3N)n2)CCN1 [compound 232]
The Ki of the first is higher: > 2800 nM for the first, < 50 nM for the second.

Compared with `CN(c1cccc(C(=O)c2cc(Br)cnc2N)n1)C1CCCCC1` [compound 198], `Nc1ncc(Br)cc1C(=O)c1cccc(N2CCNC(c3ccccc3)C2)n1` (stereo not shown) [compound 240] is lower in Ki: > 2800 nM for the first, < 50 nM for the second. The second binds more tightly here.

First: Nc1ncc(-c2csc3ccccc23)cc1C(=O)c1cccc(N2CCCNCC2)n1 [compound 200]
Second: Nc1ncc(-c2ccsc2)cc1C(=O)c1cccc(N2CCCNCC2)n1 [compound 201]
The Ki of the first is lower: < 50 nM for the first, 50 to 500 nM for the second. The first binds more tightly here.

`C[C@@H]1CN(c2cccc(C(=O)c3cccnc3N)n2)C[C@H](C)N1` [compound 205] and `C[C@H]1CN(c2cccc(C(=O)c3cccnc3N)n2)[C@@H](C)CN1` [compound 218] fall in the same range of Ki: 50 to 500 nM for the first, 50 to 500 nM for the second.

Compared with `Nc1ncc(-c2ccccc2)cc1C(=O)c1cccc(N2CCNCC2)n1` [compound 206], `CC(C)C[C@H]1CN(c2cccc(C(=O)c3cc(-c4ccccc4)cnc3N)n2)CCN1` [compound 239] is higher in Ki: < 50 nM for the first, 50 to 500 nM for the second. The first binds more tightly here.

First: CC(C)C[C@H]1CN(c2cccc(C(=O)c3cccnc3N)n2)CCN1C(=O)CC(F)(F)F [compound 219]
Second: CC(C)C[C@H]1CN(c2ccc(C(F)(F)F)c(C(=O)c3cccnc3N)n2)CCN1 [compound 334, (S)-(2-aminopyridin-3-yl)(6-(3-isobutylpiperazin-1-yl)-3-(trifluoromethyl)pyridin-2-yl)methanone]
The Ki of the first is higher: 50 to 500 nM for the first, < 50 nM for the second.

First: Nc1ncccc1C(=O)c1cc2ccccc2c(N2CCCNCC2)n1 [compound 221, (1-(1,4-diazepan-1-yl)isoquinolin-3-yl)(2-aminopyridin-3-yl)methanone dihydrochloride]
Second: Nc1ncccc1C(=O)c1nc(N2CCNCC2)cc2ccccc12 [compound 320, (2-aminopyridin-3-yl)(3-(piperazin-1-yl)isoquinolin-1-yl)methanone bis(2,2,2-trifluoroacetate)]
The Ki of the first is higher: > 2800 nM for the first, 50 to 500 nM for the second.

`CC1CN(c2cccc(C(=O)c3cccnc3N)n2)C(C)CN1` (stereo not shown) [compound 222] and `C[C@H]1CNCCN1c1cccc(C(=O)c2cccnc2N)n1` [compound 228] fall in the same range of Ki: 50 to 500 nM for the first, 50 to 500 nM for the second.

`Cc1ccc(N2CCNCC2)nc1C(=O)c1cccnc1N` [compound 230] and `Cc1sc(N2CCNCC2)nc1C(=O)c1cccnc1N` [compound 251] fall in the same range of Ki: 50 to 500 nM for the first, 50 to 500 nM for the second.

First: C=Cc1cnc(N)c(C(=O)c2cccc(N3CCN[C@@H](CC(C)C)C3)n2)c1 [compound 233]
Second: C=Cc1cnc(N)c(C(=O)c2cccc(N3CCNC(c4ccccc4)C3)n2)c1 (stereo not shown) [compound 241]
The Ki of the first is higher: 50 to 500 nM for the first, < 50 nM for the second.

`CC(C)[C@@H]1CNCCN1c1cccc(C(=O)c2cccnc2N)n1` [compound 237] and `CC[C@@H]1CNCCN1c1cccc(C(=O)c2cccnc2N)n1` [compound 243] fall in the same range of Ki: 50 to 500 nM for the first, 50 to 500 nM for the second.

Compared with `Cc1cc(C)c(CC2CN(c3cccc(C(=O)c4cccnc4N)n3)CCN2)c(C)c1` (stereo not shown) [compound 244], `Nc1ncccc1C(=O)c1cccc(N2CCNC(CO)C2)n1` (stereo not shown) [compound 303] is lower in Ki: > 2800 nM for the first, 50 to 500 nM for the second.

`CC(C)=Cc1cnc(N)c(C(=O)c2cccc(N3CCCNCC3)n2)c1` [compound 246] and `Nc1ncc(Br)cc1C(=O)c1nc(N2CCNCC2)ccc1C(F)(F)F` [compound 325] cannot be ordered by Ki: < 50 nM for the first, < 50 nM for the second.

`Cc1sc(N2CCNC[C@H]2C)nc1C(=O)c1cccnc1N` [compound 247] and `Cc1sc(N2CCNC(c3ccccc3)C2)nc1C(=O)c1cccnc1N` (stereo not shown) [compound 256] fall in the same range of Ki: 50 to 500 nM for the first, 50 to 500 nM for the second.

`Nc1ncccc1C(=O)c1cccc(N2CCNC(c3cccnc3)C2)n1` (stereo not shown) [compound 249] and `Nc1ncccc1C(=O)c1cccc(N2CCNC(c3ccc(F)cc3)C2)n1` (stereo not shown) [compound 295] fall in the same range of Ki: 50 to 500 nM for the first, 50 to 500 nM for the second.

Compared with `Nc1ncccc1C(=O)c1cccc(N2CCNC(c3ccccc3Cl)C2)n1` (stereo not shown) [compound 258], `Cc1ccccc1C1CN(c2cccc(C(=O)c3cccnc3N)n2)CCN1` (stereo not shown) [compound 339] is higher in Ki: < 50 nM for the first, 50 to 500 nM for the second. The first binds more tightly here.

`Nc1ncc(-c2cccc(O)c2)cc1C(=O)c1cccc(N2CCNC(c3ccccc3)C2)n1` (stereo not shown) [compound 260] and `Nc1ncc(-c2cccc(CO)c2)cc1C(=O)c1cccc(N2CCNC(c3ccccc3)C2)n1` (stereo not shown) [compound 283] fall in the same range of Ki: 50 to 500 nM for the first, 50 to 500 nM for the second.

`Nc1ncc(-c2ccc(O)cc2)cc1C(=O)c1cccc(N2CCNC(c3ccccc3)C2)n1` (stereo not shown) [compound 261] and `Nc1ncc(-c2ccc(CO)cc2)cc1C(=O)c1cccc(N2CCNC(c3ccccc3)C2)n1` (stereo not shown) [compound 282] fall in the same range of Ki: 50 to 500 nM for the first, 50 to 500 nM for the second.

`Nc1ncc(-c2ccccc2)cc1C(=O)c1cccc(N2CCNC(c3ccccc3)C2)n1` (stereo not shown) [compound 262] and `Nc1ncc(-c2ccncc2)cc1C(=O)c1cccc(N2CCNC(c3ccccc3)C2)n1` (stereo not shown) [compound 288] fall in the same range of Ki: 50 to 500 nM for the first, 50 to 500 nM for the second.

`Nc1ncc(-c2cccs2)cc1C(=O)c1cccc(N2CCNC(c3ccccc3)C2)n1` (stereo not shown) [compound 263] and `Nc1ncc(-c2ccsc2)cc1C(=O)c1cccc(N2CCNC(c3ccccc3)C2)n1` (stereo not shown) [compound 264] fall in the same range of Ki: 50 to 500 nM for the first, 50 to 500 nM for the second.

First: Nc1ncc(-c2cc3ccccc3s2)cc1C(=O)c1cccc(N2CCNC(c3ccccc3)C2)n1 (stereo not shown) [compound 265]
Second: Nc1ncc(-c2cc3ccccc3[nH]2)cc1C(=O)c1cccc(N2CCNC(c3ccccc3)C2)n1 (stereo not shown) [compound 267]
The Ki of the first is lower: 50 to 500 nM for the first, > 2800 nM for the second. The first binds more tightly here.

First: Nc1ncc(-c2csc3ccccc23)cc1C(=O)c1cccc(N2CCNC(c3ccccc3)C2)n1 (stereo not shown) [compound 266]
Second: Nc1ncc(-c2c[nH]c3ccccc23)cc1C(=O)c1cccc(N2CCNC(c3ccccc3)C2)n1 (stereo not shown) [compound 268]
The Ki of the first is higher: 50 to 500 nM for the first, < 50 nM for the second. The second binds more tightly here.

`N#Cc1ccccc1-c1cnc(N)c(C(=O)c2cccc(N3CCNC(c4ccccc4)C3)n2)c1` (stereo not shown) [compound 269] and `N#Cc1cccc(-c2cnc(N)c(C(=O)c3cccc(N4CCNC(c5ccccc5)C4)n3)c2)c1` (stereo not shown) [compound 270] fall in the same range of Ki: 50 to 500 nM for the first, 50 to 500 nM for the second.

`N#Cc1ccc(-c2cnc(N)c(C(=O)c3cccc(N4CCNC(c5ccccc5)C4)n3)c2)cc1` (stereo not shown) [compound 271] and `COc1ccc(-c2cnc(N)c(C(=O)c3cccc(N4CCNC(c5ccccc5)C4)n3)c2)cc1` (stereo not shown) [compound 285] fall in the same range of Ki: 50 to 500 nM for the first, 50 to 500 nM for the second.

`Nc1cccc(-c2cccc(C(=O)c3cccnc3N)n2)c1` [compound 272] and `Nc1ccc(-c2cccc(C(=O)c3cccnc3N)n2)cc1` [compound 273] cannot be ordered by Ki: > 2800 nM for the first, > 2800 nM for the second.

`Nc1ncccc1C(=O)c1cccc(-c2cccc3[nH]ccc23)n1` [compound 274] and `Nc1ncccc1C(=O)c1cccc(-c2c[nH]c3ccccc23)n1` [compound 294] cannot be ordered by Ki: > 2800 nM for the first, > 2800 nM for the second.

`Nc1ncc(-c2cc3ccccc3o2)cc1C(=O)c1cccc(N2CCNC(c3ccccc3)C2)n1` (stereo not shown) [compound 276] and `COc1cccc(-c2cnc(N)c(C(=O)c3cccc(N4CCNC(c5ccccc5)C4)n3)c2)c1` (stereo not shown) [compound 286] fall in the same range of Ki: 50 to 500 nM for the first, 50 to 500 nM for the second.

`Nc1ncc(-c2ccc[nH]2)cc1C(=O)c1cccc(N2CCNC(c3ccccc3)C2)n1` (stereo not shown) [compound 277] and `Nc1ncc(-c2cc[nH]c2)cc1C(=O)c1cccc(N2CCNC(c3ccccc3)C2)n1` (stereo not shown) [compound 289] fall in the same range of Ki: 50 to 500 nM for the first, 50 to 500 nM for the second.

First: Nc1ncc(-c2ccc(Oc3ccccc3)cc2)cc1C(=O)c1cccc(N2CCNC(c3ccccc3)C2)n1 (stereo not shown) [compound 278]
Second: Nc1ncc(/C=C/c2ccccc2)cc1C(=O)c1cccc(N2CCNC(c3ccccc3)C2)n1 (stereo not shown) [compound 290]
The Ki of the first is higher: > 2800 nM for the first, 50 to 500 nM for the second. The second binds more tightly here.

First: N#CC1(c2cccc(C(=O)c3cccnc3N)n2)CCNCC1 [compound 280]
Second: Nc1ncccc1C(=O)c1cccc(-c2cn[nH]c2)n1 [compound 299]
The Ki of the first is lower: 50 to 500 nM for the first, > 2800 nM for the second. The first binds more tightly here.

Compared with `COc1ccc(OC)c(C2CN(c3cccc(C(=O)c4cccnc4N)n3)CCN2)c1` (stereo not shown) [compound 287], `COc1ccccc1C1CN(c2cccc(C(=O)c3cccnc3N)n2)CCN1` (stereo not shown) [compound 296] is lower in Ki: 50 to 500 nM for the first, < 50 nM for the second. The second binds more tightly here.

`Nc1ncc(CCc2ccccc2)cc1C(=O)c1cccc(N2CCNC(c3ccccc3)C2)n1` (stereo not shown) [compound 291] and `Nc1ncccc1C(=O)c1cccc(N2CCNC(c3ccc4ccccc4c3)C2)n1` (stereo not shown) [compound 308] fall in the same range of Ki: 50 to 500 nM for the first, 50 to 500 nM for the second.

First: CN(C)c1cccc(-c2cccc(C(=O)c3cccnc3N)n2)c1 [compound 293]
Second: Cc1ccc(C2CN(c3cccc(C(=O)c4cccnc4N)n3)CCN2)cc1 (stereo not shown) [compound 336]
The Ki of the first is higher: > 2800 nM for the first, 50 to 500 nM for the second. The second binds more tightly here.

`Nc1ncccc1C(=O)c1cccc(N2CCNC(c3ccc(Cl)cc3)C2)n1` (stereo not shown) [compound 307] and `COc1ccc(C2CN(c3cccc(C(=O)c4cccnc4N)n3)CCN2)cc1` (stereo not shown) [compound 310] fall in the same range of Ki: 50 to 500 nM for the first, 50 to 500 nM for the second.

Compared with `Nc1ncc(Br)cc1C(=O)c1nc(N2CCNC(c3ccccc3)C2)ccc1C(F)(F)F` (stereo not shown) [compound 326], `C=Cc1cnc(N)c(C(=O)c2nc(N3CCNC(c4ccccc4)C3)ccc2C(F)(F)F)c1` (stereo not shown) [compound 328] is lower in Ki: 50 to 500 nM for the first, < 50 nM for the second. The second binds more tightly here.

First: C=Cc1cnc(N)c(C(=O)c2nc(N3CCNC(c4ccccc4)C3)ccc2Cl)c1 (stereo not shown) [compound 332]
Second: Nc1ncccc1C(=O)c1nccc(N2CCNC(c3ccccc3)C2)n1 (stereo not shown) [compound 341]
The Ki of the first is lower: < 50 nM for the first, 50 to 500 nM for the second.

With `CC(C)[C@H]1CN(c2ccc(C(F)(F)F)c(C(=O)c3cccnc3N)n2)CCN1` [compound 338] the Ki was < 50 nM.
